# Experimental data as given in PubChem BioAssay AID588855 (National Center for Advancing Translational Sciences (NCATS), 2011).
# In all, about 410,000 compounds went through this assay and about 5,000 (1.2%) were called active. The inconclusive results got no clear call from the source; some entries with a clear call stand among them for comparison. Calls follow the shape of the dose curve; as a rule, active = well fitted inhibition curve with a large enough effect; inconclusive = small, poorly fitted or top-dose-only effect; inactive = no such curve, though single readings can be large or run the other way. A potency beside an inconclusive call is a rough fit, not a confirmed value.
# Test: qHTS for Inhibitors of TGF-b; also: nearly all actives have a fitted effect of over 65% in size
# Conditions: HepG2 CAGA-GFP TGF-b/SMAD3 reporter, GFP fluorescence, 18 h, TGF-beta stimulated, 500 pg/mL final; series mostly up to 46.1 µM; activity, negative = inhibition: at the top concentration
# Method in brief: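 HEPG2 CAGA-GFP reporter cells (1000/well, DMEM with 1% FBS) received compounds, then recombinant TGF-beta at 500 pg/mL final for 18 hours at 37 degrees C. Per-cell GFP summed per well was normalised to unstimulated and stimulated DMSO controls before curve fitting.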
# % is scaled to controls: 0 for no effect and ±100 for the full control effect; potency is read from the fitted curve at half-maximal effect; tags tell the direction and shape of the fitted curve.
SMILES,Potency,"activity, negative = inhibition"
CCCOc1ccc(/C=N/NC(=O)CN(c2ccc(OCC)cc2)S(C)(=O)=O)cc1,"inconclusive: 35.5 µM [inhibitor, single point]",–
Cc1ccccc1C(=O)NCc1nc(-c2ccc(Cl)cc2)no1,"inconclusive: 0.794 µM [inhibitor, full curve]",–
CCCCN(CC(=O)NC(C)(C)C)C(=O)C(=O)Nc1ccc2c(c1)OCCO2,"inconclusive: 2.82 µM [inhibitor, single point]",–
CC(=O)Nc1cc(-c2ccc(Cl)cc2)[nH]n1,"inconclusive: 14.1 µM [inhibitor, partial curve, poor fit]",–
O=C(NC(=S)NCCc1ccccc1)C1CCCCC1,"inconclusive: 35.5 µM [inhibitor, single point]",–
COc1cc(/C=N/Nc2nc3ccccc3[nH]2)cc(OC)c1O,"inconclusive: 22.4 µM [inhibitor, single point]",–
Cc1ccc(C)c(N2CCN(C(=O)CCc3nc(-c4ccccc4Br)no3)CC2)c1,"inconclusive: 22.4 µM [inhibitor, single point]",–
CC(C)Cn1c(-c2cccc(S(=O)(=O)N3CCOCC3)c2)n[nH]c1=S,–,inactive: -1.55%
CCOC(=O)C1=C(CCl)NC(=O)NC1c1ccc2c(c1)OCO2 (centres undefined),"inconclusive: 15.8 µM [inhibitor, single point]",–
CC(=O)N(Cc1ccccn1)Cc1ccco1,–,inactive: -15.4%
CCC(C(=O)Nc1ccc(C(C)C)cc1)n1nc(C)n2c(cc3cc(C)ccc32)c1=O (centres undefined),"inconclusive: 3.16 µM [inhibitor, full curve, poor fit]",–
CCOC(=O)c1c(-c2cc(OC)c(OC)c(OC)c2)csc1N,–,inactive: 6.2%
COc1ccccc1NC(=O)CN(c1cc(C)cc(C)c1)S(=O)(=O)c1c(C)[nH]c(=O)[nH]c1=O,–,inactive: -2.77%
COc1ccc(Cl)cc1Nc1nc(NCCO)nc(N2CCCCC2)n1,"inconclusive: 35.5 µM [inhibitor, partial curve, poor fit]",–
CCc1nnc(SCc2nc(-c3cccc(Cl)c3)oc2C)c2cc3sc(C)cc3n12,"inconclusive: 5.62 µM [inhibitor, partial curve, poor fit]",–
CCSCc1nnc(SCC(=O)Nc2nc3ccccc3s2)n1C,"inconclusive: 5.62 µM [inhibitor, single point]",–
COc1cccc(C2Nc3ccc4ccccc4c3C3=C2C(=O)CCC3)c1O (centres undefined),"inconclusive: 4.47 µM [inhibitor, partial curve, poor fit]",–
COc1cccc(NC(=O)CN(C)C(=O)c2cc(Cl)nc3ccccc23)c1,"inconclusive: 0.631 µM [inhibitor, partial curve, poor fit]",–
O=C(NNC1CC(=O)N(c2ccccc2)C1=O)c1ccc(COc2ccccc2Cl)o1 (centres undefined),"inconclusive: 35.5 µM [inhibitor, single point]",–
CCCOC(=O)c1ccc(Oc2coc3c(CN(CC)CC)c(O)ccc3c2=O)cc1,–,inactive: 0%
COc1cccc(Cn2c(Oc3cccc(C)c3)nc3c2c(=O)n(C)c(=O)n3C)c1,"inconclusive: 22.4 µM [inhibitor, single point]",–
CCCCNC(=O)CN1C(=O)NC2NC(=O)NC21 (centres undefined),"inconclusive: 15.8 µM [inhibitor, single point]",–

SMILES,Potency,"activity, negative = inhibition"
O=C1NC(=S)S/C1=C\c1ccc(SCc2ccco2)o1,"inconclusive: 35.5 µM [inhibitor, single point]",–
CCC1C(O)=C(c2ccccn2)C(=N)N1c1ccccc1 (centres undefined),"inconclusive: 25.1 µM [inhibitor, single point]",–
COc1cc2c(cc1OC)-c1cc(Nc3ccc4c(c3)OCCO4)nc(=O)n1CC2,–,inactive: -1.97%
O=C(NC(=S)NCc1ccccc1)c1ccccc1,"inconclusive: 7.94 µM [inhibitor, partial curve]",–
Cc1c(N=C2C=CC(=O)c3ccccc32)c(=O)n(-c2ccccc2)n1C,"inconclusive: 35.5 µM [inhibitor, partial curve, poor fit]",–
Cc1nc(-c2cccc(NC(=O)C(C)Oc3ccccc3)c2)cs1 (centres undefined),"inconclusive: 35.5 µM [inhibitor, single point]",–
O=C(COC(=O)C1CC1)Nc1nc(-c2ccc(F)c(F)c2)cs1,"inconclusive: 35.5 µM [inhibitor, single point]",–
COc1cccc(NC(=O)CCc2nnc3n(Cc4ccccc4Cl)c(=O)c4ccccc4n23)c1,"inconclusive: 3.16 µM [inhibitor, partial curve, poor fit]",–
CCOC(=O)c1c(C)[nH]c(C)c1C(=O)CSc1nc2ccccc2c(=O)n1-c1ccc(Cl)cc1,"inconclusive: 35.5 µM [inhibitor, single point]",–
OC(c1cccc(OCc2ccccc2)c1)c1nnc(-c2ccccc2)o1 (centres undefined),"inconclusive: 14.1 µM [inhibitor, partial curve, poor fit]",–
Cc1ccc(Nc2c(-c3ccc(N4CCOCC4)cc3)nc3cccc(C)n23)cc1,–,inactive: 4.57%
Cc1nc(Nc2ccccc2)sc1C(=O)c1ccc(F)cc1,–,inactive: 0.751%
CC12CN3CCN(CC(C3)/C1=N\N=C1/C3CN4CCN(C3)CC1(C)C4)C2,"inconclusive: 35.5 µM [inhibitor, single point]",–
CC1CCc2sc(C(=O)NNC(=O)c3ccncc3)cc2C1 (centres undefined),–,inactive: -14.4%
O=C(NCc1ccncc1)C1Cc2c(-c3ccc(Cl)cc3)ccnc2O1 (centres undefined),–,inactive: 21.3%
COc1ccccc1CCNC(=O)Cc1c(C)c2ccc(O)cc2oc1=O,–,inactive: 8.07%
COc1cccc(CN2CCN(C(=O)c3cc(-c4ccncc4)nc4ccc(C)cc34)CC2)c1,–,inactive: -2.53%
COc1cccc2cc(-c3nc4sc(C(=O)Nc5ccc(F)cc5F)c(C)c4c(=O)[nH]3)c(=O)oc12,–,inactive: 39.6%
c1ccc(CSc2nnnn2-c2ccccc2)cc1,–,inactive: -0.487%
O=C1c2ccccc2C(=O)c2c1ccc(O)c2O,–,inactive: -2.61%
CCOC(=O)c1ccccc1NC(=O)N1CCN2CCCCC2C1 (centres undefined),"inconclusive: 1.41 µM [inhibitor, partial curve, poor fit]",–
CCC(NC(=O)Nc1nnc(C(F)(F)F)s1)(C(F)(F)F)C(F)(F)F,"inconclusive: 7.94 µM [inhibitor, partial curve, poor fit]",–
